Test results as given in PubChem BioAssay AID504466 (National Center for Advancing Translational Sciences (NCATS), 2011).
The campaign covered roughly 330,000 compounds. About 4,200 (1.3%) were called active. This list was built around the results that the source calls inconclusive (neither active nor inactive); the mix of calls is not that of the screen. Calls follow the shape of the dose curve; as a rule, active = well fitted activation curve with a large enough effect; inconclusive = small, poorly fitted or top-dose-only effect; inactive = no such curve, though single readings can be large or run the other way. A potency beside an inconclusive call is a rough fit, not a confirmed value.

experiment: qHTS screen for small molecules that induce genotoxicity in human embryonic kidney (HEK293T) cells expressing luciferase-tagged ELG1; details: HEK293T ELG1-luciferase reporter, luminescence, 16 h; series mostly up to 46 µM; also: nearly all actives have a fitted effect of over 60% in size; as to activity change, positive = activation: % of control where 0% means no effect
Summary of the method: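 HEK293T cells expressing luciferase-tagged ELG1 were exposed to compound or DMSO vehicle for 16 hr at 37 °C and 5% CO2. Luciferase activity was then measured with ONE-Glo after 30 min at room temperature.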
Potency is read from the fitted curve at half-maximal effect; tags tell the direction and shape of the fitted curve.

| Structure (SMILES) | Potency | activity change, positive = activation |
| --- | --- | --- |
| Cc1ccc(Nc2nc(Cl)nc(NC(C)(C)C)n2)cc1 | inconclusive: 16.4 µM [activator, single point] |  |
| CC(OC(=O)C1CCN(c2ccc(C(F)(F)F)cn2)CC1)C(=O)c1ccccc1 (stereo not given) | inconclusive: 29.1 µM [activator, partial curve, poor fit] |  |
| O=C(Nc1ccc2c(c1)ncn2-c1ccccc1)c1ccco1 | inconclusive: 11.6 µM [activator, partial curve, poor fit] |  |
| Cc1ccc(-c2cc(C(=O)NCc3cnn(C)c3)c3cc(Br)ccc3n2)cc1 | inconclusive: 29.1 µM [activator, single point] |  |
| O=C(O)c1ccc(NC(=O)C2C3CCC(O3)C2C(=O)O)cc1 (stereo not given) | inconclusive: 23.1 µM [activator, partial curve, poor fit] |  |
| O=C1c2ccccc2C(=O)N1C/C=C/CN1C(=O)c2ccccc2C1=O | inconclusive: 12.6 µM [activator, single point] |  |
| Cc1ccc(S(=O)(=O)N/N=C/c2cc(Br)c(C)o2)cc1 | inconclusive: 14.6 µM [activator, partial curve, poor fit] |  |
| COc1ccc(C2C(=O)c3ccccc3C2=O)cc1 | inconclusive: 20.6 µM [activator, single point] |  |
| CC(Oc1ccc(C(=O)NCCc2ccccc2)cc1)C(=O)O (stereo not given) | inactive |  |
| O=C1Nc2cccnc2Sc2ccccc21 | inactive |  |
| CCC(Oc1ccccc1OC)C(=O)Nc1ccc2c(c1)n(C)c(=O)n2C (stereo not given) | inactive |  |
| O=C(Nc1ccccc1Cl)OC1CCCCC1 | inactive |  |
| COc1ccc(/C=C2\SC(=O)N(CCNC(=O)Cn3[nH]c(=O)c4ccccc4c3=O)C2=O)cc1 | inactive |  |
| COc1ccc(-c2cc(=O)n(-c3nc4ccccc4[nH]3)[nH]2)cc1 | inconclusive: 29.1 µM [activator, single point] |  |
| COc1cc(/C=C/C(=O)N2CCC=CC2=O)cc(OC)c1OC | inconclusive: 2.31 µM [activator, single point] |  |
| COc1cccc(C(=O)CN(C(=O)c2ccc(Cl)cc2Cl)N2C(=O)c3ccccc3C2=O)c1 | inactive |  |
| Clc1ccc(Nc2nc(-c3cccs3)cs2)nc1 | active: 1.16 µM |  |
| CCCCOC(=O)c1ccc(NC(C)=O)cc1 | inactive |  |
| CC(=O)c1c(COC(=O)c2ccccc2Cl)nc2ccccc2[n+]1[O-] | inactive |  |
| O=C(Nc1cccnc1)c1cc(-c2ccc3c(c2)OCO3)on1 | inconclusive: 5.17 µM [activator, partial curve] |  |
| COc1ccc2nc(NC(=O)c3ccccc3O)sc2c1 | inconclusive: 2.59 µM [activator, partial curve] |  |
| O=C(NCc1ccc2c(c1)OCO2)Nc1ccc(F)cc1 | inconclusive: 20.6 µM [activator, single point] |  |
| Cc1cccc(NC(=O)/C=C/c2cccs2)n1 | inconclusive: 2.31 µM [activator, full curve] |  |
| Cc1cccc(-c2noc(Cc3ccccc3)n2)c1 | inconclusive: 14.6 µM [activator, partial curve] |  |
| CC(=O)C1CCCN(C(=O)c2ccc3oc(CCc4ccccc4)nc3c2)C1 (stereo not given) | inconclusive: 10.3 µM [activator, partial curve, poor fit] |  |

| Structure (SMILES) | Potency | activity change, positive = activation |
| --- | --- | --- |
| COc1ccc(OCC(=O)N2CCN(C(=O)c3cccc(F)c3)CC2)cc1 | inactive |  |
| O=C(Nc1ccc(Cl)c(Cl)c1)c1ccccc1 | inconclusive: 4.11 µM [activator, full curve, poor fit] |  |
| O=C(Nc1nnc(CCc2ccccc2)s1)C1CCCO1 (stereo not given) | inconclusive: 18.4 µM [activator, partial curve] |  |
| CC(=O)CSc1ncnc2c1oc1ccccc12 | inconclusive: 20.6 µM [activator, single point] |  |
| Cc1ccc(C)c(-n2c(-c3csc(C)c3C)n[nH]c2=S)c1 | inactive |  |
| COc1ccc2cc(-c3ccccc3)ncc2c1 | active: 2.91 µM |  |
| O=C(CSc1ncccc1-c1nc2ccccc2[nH]1)N1CCc2ccccc21 | inconclusive: 18.4 µM [activator, partial curve] |  |
| Cn1nc(C(C)(C)C)cc1C(=O)NNC(=O)c1ccc(C(F)(F)F)cc1 | inactive |  |
| Cc1ccccc1NC(=O)c1csc2c1CCCC2 | active: 25.9 µM |  |
| N#C/C(=C\c1ccc(F)c(Br)c1)C(=O)NC1CC1 | active: 10.3 µM |  |
| CCOC(=O)c1cc(-c2ccc3c(c2)OCCO3)n[nH]1 | inconclusive: 3.26 µM [activator, full curve] |  |
| CSc1ccccc1OCc1cc(C(=O)N2CCN(c3ccccc3)CC2C)no1 (stereo not given) | inactive |  |
| O=C(Nc1ccccc1)c1ccccc1NC(=O)C(F)(F)F | inconclusive: 12.6 µM [activator, partial curve, poor fit] |  |
| COc1ccc2[nH]c3c(c2c1)CC(C)NC3=O (stereo not given) | inactive |  |
| N#CC(=C=[N-])c1nc2ccccc2nc1-[n+]1cccc(NC(=O)c2ccccc2)c1 | inactive |  |
| c1ccc(-c2csc(N3CCCCCC3)n2)cc1 | active: 18.4 µM |  |
| CC(=O)Nc1ccc2nc(C)n(Cc3ccc(Cl)cc3)c(=O)c2c1 | inconclusive: 18.4 µM [activator, partial curve, poor fit] |  |
| COc1ccc(NC(=O)N(C)C[C@H]2Oc3c(NC(=O)Nc4ccc(C(F)(F)F)cc4)cccc3C(=O)N([C@H](C)CO)C[C@@H]2C)cc1 | inactive |  |
| CC(C)Oc1ccc(CNC(=O)C2CCCN(S(=O)(=O)N3CCOCC3)C2)cc1 (stereo not given) |  | inactive: -1.71% [at 9.26 µM] |
| CCCC(=O)N=C1SC2CS(=O)(=O)CC2N1c1ccc(-c2nc3ccc(C)cc3s2)cc1 (stereo not given) | active: 20.6 µM |  |
| COc1ccc(NC(=O)CN(c2ccccc2F)S(=O)(=O)c2ccc(C)cc2)c(OC)c1 | inactive |  |
| Cc1cc(C)cc(NC(=O)Nc2ccc3c(c2)N(C)C(=O)CS3)c1 | inactive |  |
| CN(C)/C=N/C(=S)Nc1ccc(Cl)cc1Cl | active: 20.6 µM |  |
| COc1ccc(-c2nc(-c3ccccn3)no2)cc1 | inconclusive: 0.058 µM [activator, partial curve, poor fit] |  |
| COC(=O)[C@@]1(Cc2ccccc2)[C@H]2c3cc(C(=O)N4CCCC4)n(Cc4ccsc4Br)c3C[C@H]2CN1C(=O)c1ccccc1 | inconclusive: 32.6 µM [activator, partial curve, poor fit] |  |

| Structure (SMILES) | Potency | activity change, positive = activation |
| --- | --- | --- |
| O=C(CN1C(=O)S/C(=C/c2ccncc2)C1=O)N1CCOCC1 | inactive |  |
| O=c1[nH]c(CN2CCN(S(=O)(=O)c3ccccc3C(F)(F)F)CC2)nc2sc3c(c12)CCCC3 | inactive |  |
| CCn1ccc(C(=O)Nc2ccccc2SC)n1 | inconclusive: 20.6 µM [activator, single point] |  |
| Oc1c(C=Nc2ccccc2Cl)[nH]c2ccccc12 | inconclusive: 16.4 µM [activator, partial curve] |  |
| CN(CCN1CCOCC1)C(=O)c1cc(COc2ccc(F)c(F)c2)on1 | inconclusive: 23.1 µM [activator, partial curve, poor fit] |  |
| Cc1cc(C)n2nc(-c3ccc(F)cc3)nc2n1 | inconclusive: 20.6 µM [activator, partial curve, poor fit] |  |
| COc1ccc(/C=C2\SC(=S)N(CCC(=O)Nc3ccc(O)cc3)C2=O)cc1 | inconclusive: 17.8 µM [activator, partial curve, poor fit] |  |
| Cc1csc(Nc2ccc(Cl)cc2)n1 | inconclusive: 14.6 µM [activator, partial curve, poor fit] |  |
| COc1ccc(CS(=O)(=O)c2nc(C)cc(C)c2S(C)(=O)=O)cc1 | inactive |  |
| O=C(N/N=C/c1ccc(O)cc1O)/C(=C/c1ccccc1)CCO | inconclusive: 29.1 µM [activator, partial curve, poor fit] |  |
| N/C(=N\OC(=O)COc1ccc2ccccc2c1Br)c1ccncc1 | inconclusive: 20.6 µM [activator, partial curve, poor fit] |  |
| Cc1cc(NCCCn2ccnc2)n2ncc(-c3ccc(Cl)cc3)c2n1 | inconclusive: 2.31 µM [activator, partial curve] |  |
| COCC(C)n1c(C)cc(C(=O)COC(=O)c2cccn2C)c1C (stereo not given) | inconclusive: 0.517 µM [activator, partial curve] |  |
| Cc1cccc(-n2c(-c3ccccc3)c[nH]c2=S)c1C | inactive |  |
| COc1cc(OC)nc(Oc2cc(C=O)ccc2OC)n1 | inactive |  |
| C=CCn1c(=O)c2ccccc2n2c(SCc3nc4ccccc4s3)nnc12 | inconclusive: 7.31 µM [activator, partial curve] |  |
| CC(C)(CNC(=O)c1sc2cc(Cl)ccc2c1Cl)N1CCOCC1 | active: 16.4 µM |  |
| Nc1c(Cl)ncnc1N/N=C/c1ccc(O)cc1 | inconclusive: 18.3 µM [activator, partial curve, poor fit] |  |
| Cc1csc(NC(=O)/C=C/c2ccc3c(c2)OCO3)n1 | active: 2.91 µM |  |
| COC(=O)c1c(-c2ccccc2)csc1NC(=O)c1ccco1 | active: 2.31 µM |  |
| COc1ccc(-c2nc(CCNC(=O)c3cccs3)cs2)cc1 | inconclusive: 20.6 µM [activator, partial curve, poor fit] |  |
| Cc1ccc(CNc2ccc([N+](=O)[O-])cc2C(N)=O)cc1 | inconclusive: 23.1 µM [activator, partial curve, poor fit] |  |
| CCc1ccc(-c2csc(-c3c[nH]c4ccccc34)n2)cc1 | inconclusive: 32.6 µM [activator, single point] |  |
| COCCNC(=O)COC(=O)C1=Cc2ccccc2OC1 | inactive |  |
| Cc1cccc(NC(=O)CCc2c(C)nn(-c3ccc(N4CCCCC4)nn3)c2C)c1 | inactive |  |
